# Source: article PMC12136788
# This is one part of the list.
# T1: UNK ZnF1-3 (human, UniProt Q9C0B0 31-174)
# T1 sequence: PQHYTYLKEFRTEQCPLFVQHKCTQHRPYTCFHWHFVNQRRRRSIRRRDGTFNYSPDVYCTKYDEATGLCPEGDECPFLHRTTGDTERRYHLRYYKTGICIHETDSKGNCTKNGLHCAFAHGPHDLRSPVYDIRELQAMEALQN
# B1: chr5:128440902:128440903:+_ENSG00000066583_ENST00000173527|hu_mus|hu_hu_hu_mus_True|18_98 (ssRNA)
# RNA: GGGAGUUCUACAGUCCGACGAUCUUGAACGGUGCUGCCAAGACCUUUGGGGUAUUGUUCCGUUAUGAUAACUGGAAUCCCUAAGAUCCGAGCUCCUUGCAACAGUCUCUGUCCCACGCUAAUAAUAUCCCCAAAGUAUUUGAUCAACAGAGGAUUGAGCAUCA
# B2: 80391620_80393606_440_CDS_ENSG00000169660_ENST00000327949|human|control|control (ssRNA)
# RNA: GGGAGUUCUACAGUCCGACGAUCUAGCCACCGGCGCGAGGCCUCCCCCUCUCCGAGGUAAUAGACCUCAUCACACCCGAUGUGCAGCCGCUGGGCGCCUGGGUGUAGCUCCAGGACCUGGUCAAUCAUGGCGCCCACCAGCGCCAACAGAGGAUUGAGCAUCA
# B3: chr6:79679595:79679596:-_ENSG00000146247_ENST00000275034|hu_hu|FALSE|FALSE (ssRNA)
# RNA: GGGAGUUCUACAGUCCGACGAUCUAUAUUCCAUCGCCUGUAUUUUGCAUCAUCAAAUUGUUGUCUCAAGACUAGGAAAUCUAUAACGUCAGGCAUAUCAUGGUAUUUCAUGGUAAAUGAUCCGCCAGUCAGUUUACCAGUAUCCAACAGAGGAUUGAGCAUCA
# B4: chr2:179515052:179515053:+_ENSMUSG00000000305_ENSMUST00000000314|mus_hu|mus_mus_mus_hu_False|1_1 (ssRNA)
# RNA: GGGAGUUCUACAGUCCGACGAUCGCUGUCCCAUGCAGUCACCGUGAACGCCACCUGCUCGGAGGGGACCUGCAGCUCCCGGGUGGCGAAGACUGUCCCAUCUGCCCCAACUUUGAAGUCCAUGCUGUUGGUCUCAUACUGCAUCAACAGAGGAUUGAGCAUCA
# B5: chr4:115747634:115747635:-_ENSMUSG00000063882_ENSMUST00000078676|mus_hu|FALSE|FALSE (ssRNA)
# RNA: GGGAGUUCUACAGUCCGACGAUCAGAUUCAACACGAGCAGCAACAGCGGCACCUAACCCAGUUCAGGAUCAAGAAGGACUUGUAAGGGUCACUCAGCGGAAAUCCGGCGAUCUGGCCGGAAGUGCGGCACACUCAUCGUGGUCCAACAGAGGAUUGAGCAUCA
# B6: chr8:122032151:122032152:-_ENSMUSG00000031835_ENSMUST00000081381|mus_hu|FALSE|FALSE (ssRNA)
# RNA: GGGAGUUCUACAGUCCGACGAUCCAAUGGUGAAAUCAAGACCUCAAAUUACAAAACAUGGUGGCAGGUGAUACUUACAAAAAUAAAGCGAAGGUCUAUGUUUUACAGAUUUGUGCAUGUUUCCUUCAAAUCUCAGUCUGUACUCAACAGAGGAUUGAGCAUCA
# B7: 36102013_36107042_463_CDS_ENSG00000126067_ENST00000373237|human|control|control (ssRNA)
# RNA: GGGAGUUCUACAGUCCGACGAUCCUUAAACAUCUUGUCAUGAUCGUCCUUCAUCUGGACAAUAUUGCUGGCGGCCACCCGGUCGGAGGCGACAAGAACAUAGUCGGGGCCUUGGAUACCGAUGAGGUACUCCAUGGUGGCGGACAACAGAGGAUUGAGCAUCA
# B8: chr16:23109248:23109249:+_ENSMUSG00000022884_ENSMUST00000115341|mus_mus|FALSE|FALSE (ssRNA)
# RNA: GGGAGUUCUACAGUCCGACGAUCAAGAGCCAAAAUUACCUUUUGGAUCUGUUGAGCCAGUUCUCUGGUGGGGGCCAAUACUAGUGCUUGGGUCUCCUUGAACUCAAUCUCCAACUGUUGCAGGAUGGAAAUAGCAAAUGUGGCCAACAGAGGAUUGAGCAUCA
# B9: chr1:163117127:163117128:-_ENSG00000143248_ENST00000313961|hu_mus|hu_hu_hu_mus_False|88_88 (ssRNA)
# RNA: GGGAGUUCUACAGUCCGACGAUCUGCUACAAAGGAUGUAACUCAACACUCACAGGAACUUUUGGAAGCCUGACCAGAUGACUACUUGAUUAGCUCCUUAUAAAAUUCAGAGCGCACAAAGCGGGGCAGAGAAUCCUUCUCCAUCAACAGAGGAUUGAGCAUCA
# B10: chr1:165619138:165619139:+_ENSG00000143198_ENST00000367886|hu_mus|FALSE|FALSE (ssRNA)
# RNA: GGGAGUUCUACAGUCCGACGAUCCUUGUACUUCUUGCGGGCUUUGCCCACGUUGAUGGCUAGGUGGAGCACCAUCACAAAGCUGGCAGCACCAGUGAGAAGCACAAAUCCAUACUCCUUAGAGAGGACAGCCAUCUUGGCUCUCAACAGAGGAUUGAGCAUCA
# B11: 57919867_57919987_1532_CDS_ENSG00000166987_ENST00000355673|human|control|control (ssRNA)
# RNA: GGGAGUUCUACAGUCCGACGAUCCACAGAAGGGAGAAUUGGUUGGGAUGGCUCCGGGAGAGAAAAGGGUUGGGGGACAGGAGCAGGGGCCCGAGGACGGCUCCGUCUAGGGGUUUGAGGGCCUCUCCCUUCUAGCAAUCGAAACAACAGAGGAUUGAGCAUCA
# B12: chr16:94690093:94690094:+_ENSMUSG00000040785_ENSMUST00000117648|mus_hu|mus_mus_mus_hu_True|28_108 (ssRNA)
# RNA: GGGAGUUCUACAGUCCGACGAUCGGGGACUCCUGUGGGACACACAGCCUCGAUUCCAGGGGGAAAAAGUCUUAGUCGAUACUAAUUAAAAAGUGUUAAUGAUUUUUAUUACCAAAAUUACAUCUAUAAAAGAUGAAAAGCAAACAACAGAGGAUUGAGCAUCA
# B13: chr12:48362563:48362564:+_ENSG00000134291_ENST00000256686|hu_hu|hu_hu_hu_mus_False|1_88 (ssRNA)
# RNA: GGGAGUUCUACAGUCCGACGAUCUCCGUCAAGCCCUUCGAUAGACCCAUAGACUCUAAACUGUAAUCACUUUGUAUGGGGAAGGAAAAGAAACGCCAAAAACUUUCCAAAAAGCGGGGGUGGGGUGAGGCGGGAGGUUGGGAACAACAGAGGAUUGAGCAUCA
# B14: chr13:60863204:60863205:+_ENSMUSG00000021559_ENSMUST00000077453|mus_mus|motif|central (ssRNA)
# RNA: GGGAGUUCUACAGUCCGACGAUCCAGUCCAUAAAGACCCUACCCAAGCCAAGGCUGCCCUCACCGGGACACCACUGAGCGGAUGGAAUUGUAGGACGUGCCACUGUUACAGCUUGAGGCAUAGGCCUCCUGGCCAUUGCCAUCCAACAGAGGAUUGAGCAUCA
# Molecular target: T1, UNK ZnF1-3
# Test: nsRBNS (natural sequence RNA bind-n-seq); RBNS binding buffer (assumed for nsRBNS): 25 mM Tris pH 7.5, 150 mM KCl, 3 mM MgCl2, 0.01% Triton X-100, 500 ug/ml BSA, 20 U/ml SUPERase-In, 4 C; UNK is unkempt and MSI1 is Musashi-1; names of the RNAs are library labels; protein concentration not given here; high values mean tight binding
row,Binder,binding signal [enrichment R]
1,B1,0.679
2,B2,0.701
3,B3,1.13
4,B4,0.721
5,B5,1.9
6,B6,1.12
7,B7,0.554
8,B8,1.31
9,B9,1.26
10,B10,0.99
11,B11,1.73
12,B12,2.19
13,B13,2.82
14,B14,0.934
